According to patent publication US20230143604A1, “QW DOSING OF GIP RECEPTOR AGONIST PEPTIDE COMPOUNDS AND USES THEREOF” (TAKEDA PHARMACEUTICAL COMPANY LIMITED, priority 2020, published 2023):
Like-named read-outs stand apart in the source and are kept apart here. Part of at least one peptide drawing is inferred or uncertain, most often the ends. Starred links: 1 amine or outer side, 2 acyl side, 3 side chain; linkers in the order of their positions; H or OH if unused. Non-standard residues stand in square brackets, D forms with d. Residues, ends and D or L forms follow the SMILES beside them. Groups on a side chain read outwards from the residue. *: point of attachment. C20 diacid = O=C(O)CCCCCCCCCCCCCCCCCCC(=O)*; C17 diacid = O=C(O)CCCCCCCCCCCCCCCC(=O)*; γGlu = O=C(O)[C@H](CCC(=O)[*:2])N[*:1]; NMeY = CN[C@@H](Cc1ccc(O)cc1)C(=O)O; AEEA = NCCOCCOCC(=O)O; Aib = CC(C)(N)C(=O)O

How the values were obtained:
human GIPR = target: T1, human GIPR (Homo sapiens, UniProt P48546); experiment: Human GIPR agonist activity, intracellular cAMP accumulation; type: cell-based
T1 construct: HEK-293T cells overexpressing full-length human GIPR; FLAG (N); host or cells: HEK-293T
T1 sequence (P48546 22-466): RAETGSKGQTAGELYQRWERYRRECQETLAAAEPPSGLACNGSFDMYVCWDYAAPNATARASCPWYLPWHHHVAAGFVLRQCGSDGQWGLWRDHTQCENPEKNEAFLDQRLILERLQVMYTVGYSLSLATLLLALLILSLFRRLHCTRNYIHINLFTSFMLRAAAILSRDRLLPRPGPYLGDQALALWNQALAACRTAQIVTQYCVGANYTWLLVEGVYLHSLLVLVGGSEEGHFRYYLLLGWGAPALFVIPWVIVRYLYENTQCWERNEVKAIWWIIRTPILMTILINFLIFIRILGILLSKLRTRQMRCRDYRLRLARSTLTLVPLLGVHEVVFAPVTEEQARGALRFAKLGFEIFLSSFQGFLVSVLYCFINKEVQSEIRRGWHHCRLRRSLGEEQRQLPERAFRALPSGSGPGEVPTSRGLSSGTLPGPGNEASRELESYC
Protocol: Cells are cultured per the manufacturer's protocol in DMEM with 10% fetal bovine serum and 1 μg/mL puromycin and stored in frozen aliquots to be used as assay ready cells. On the day of the assay, cells are removed from frozen storage, washed two times in 1× Kreb's Ringer Buffer (Zenbio, Research Triangle Park, N.C.), and re-suspended to a concentration of 4×10^5 cells/mL in 1× Kreb's Ringer Buffer. […] Cells are incubated with test compound for 1 hr at room temperature in the dark, and cAMP accumulation is measured using the Cisbio HiRange cAMP assay kit (Bedford, Mass.) per the manufacturer's protocol. Anti-cAMP antibody and d2-cAMP tracer reagents diluted in lysis/detection buffer are incubated in the dark for 1 hr, and results are measured on an Envision plate reader (Perkin Elmer, Waltham, Mass.). Data is normalized using 1 nM GIP as 100% activity, and DMSO alone as 0% activity.

C57BL/6J mice = experiment: Oral glucose tolerance test (OGTT); type: in vivo; details: 3 nmol/kg s.c., 24 hours before glucose loading
Outline: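 Peptide or vehicle given s.c. at 0.1, 0.3, 3 or 10 nmol/kg (peptide-dependent), 24 h before oral 50% dextrose at 5 ml/kg unless stated otherwise. Blood glucose read at 0, 15, 30 and 60 min. % inhibition = (1−(AUC cpd−AUC naïve)/(AUC veh−AUC naïve))×100.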

Row | SMILES | EC50 (human GIPR; HEK-293T cells overexpressing human GIPR, 1 hr, read-out: Human GIPR cAMP EC50, HEK293T) [pM] | Oral Glucose Tolerance Test Percent decrease in blood glucose AUC (%) over 60 mins (C57BL/6J mice) | EC50 (human GIPR; read-out: Human GIPR cAMP EC50, HEK293T, HEK-293T cells overexpressing human GIPR, 1 hr) [pM]
1 | CC[C@H](C)[C@H](NC(=O)[C@H](CO)NC(=O)[C@H](Cc1ccc(O)cc1)NC(=O)[C@H](CC(=O)O)NC(=O)[C@H](CO)NC(=O)[C@@H](NC(=O)[C@H](Cc1ccccc1)NC(=O)[C@@H](NC(=O)CNC(=O)[C@H](CCC(=O)O)NC(=O)C(C)(C)NC(=O)[C@H](Cc1ccc(O)cc1)NC)[C@@H](C)O)[C@@H](C)CC)C(=O)N[C@@H](C)C(=O)N[C@@H](CC(C)C)C(=O)N[C@@H](CC(=O)O)C(=O)N[C@@H](CCCNC(=N)N)C(=O)NC(C)(C)C(=O)N[C@@H](C)C(=O)N[C@@H](CCC(N)=O)C(=O)NC(C)(C)C(=O)N[C@@H](CCCCNC(=O)COCCOCCNC(=O)COCCOCCNC(=O)CC[C@H](NC(=O)CC[C@H](NC(=O)CCCCCCCCCCCCCCCCCCC(=O)O)C(=O)O)C(=O)O)C(=O)N[C@@H](Cc1ccccc1)C(=O)N[C@H](C(=O)N[C@@H](CC(N)=O)C(=O)N[C@@H](Cc1c[nH]c2ccccc12)C(=O)N[C@@H](CC(C)C)C(=O)N[C@@H](CC(C)C)C(=O)N[C@@H](C)C(=O)N[C@@H](CCC(N)=O)C(=O)N[C@@H](CCCCN)C(=O)NCC(=O)O)C(C)C [Compound 39] (H-[NMeY][Aib]EGTFISDYSIALDR[Aib]AQ[Aib]K([AEEA-AEEA-γGlu-γGlu-C20 diacid])FVNWLLAQKG-OH) | 1.7 | 24% (3 nmol/kg) | –
2 | CC[C@H](C)[C@H](NC(=O)[C@H](CO)NC(=O)[C@H](Cc1ccc(O)cc1)NC(=O)[C@H](CC(=O)O)NC(=O)[C@H](CO)NC(=O)[C@@H](NC(=O)[C@H](Cc1ccccc1)NC(=O)[C@@H](NC(=O)CNC(=O)[C@H](CCC(=O)O)NC(=O)C(C)(C)NC(=O)[C@H](Cc1ccc(O)cc1)NC)[C@@H](C)O)[C@@H](C)CC)C(=O)N[C@@H](C)C(=O)N[C@@H](CC(C)C)C(=O)N[C@@H](CC(=O)O)C(=O)N[C@@H](CCCNC(=N)N)C(=O)NC(C)(C)C(=O)N[C@@H](CCCCNC(=O)COCCOCCNC(=O)COCCOCCNC(=O)CC[C@H](NC(=O)CCCCCCCCCCCCCCCC(=O)O)C(=O)O)C(=O)N[C@@H](CCC(N)=O)C(=O)NC(C)(C)C(=O)N[C@@H](CC(=O)O)C(=O)N[C@@H](Cc1ccccc1)C(=O)N[C@H](C(=O)N[C@@H](CC(N)=O)C(=O)N[C@@H](Cc1c[nH]c2ccccc12)C(=O)N[C@@H](CC(C)C)C(=O)N[C@@H](CC(C)C)C(=O)N[C@@H](C)C(=O)N[C@@H](CCC(N)=O)C(=O)N[C@@H](CCCNC(=N)N)C(=O)N1CCC[C@H]1C(=O)N[C@@H](CO)C(=O)N[C@@H](CO)C(=O)NCC(=O)N[C@@H](C)C(=O)N1CCC[C@H]1C(=O)N1CCC[C@H]1C(=O)N1CCC[C@H]1C(=O)N[C@@H](CO)C(N)=O)C(C)C [Compound 25] (H-[NMeY][Aib]EGTFISDYSIALDR[Aib]K([AEEA-AEEA-γGlu-C17 diacid])Q[Aib]DFVNWLLAQRPSSGAPPPS-NH2) | – | 9% (3 nmol/kg) | 1.9
